Consider 20 molecules from publication PMC9911399, “Two distinct binding modes provide the RNA-binding protein RbFox with extraordinary sequence specificity”.

Numbering of substitutions follows the chain as printed; changes in the protein carry UniProt numbers. Some of the results follow.

B1: UCGCGGA (DNA:RNA)
RNA: GGGAGACCGGAAUUCAGAUUGUCCUCGCGGAUUAAAUCCCGUCGUAGCCACCA
DNA 1: CAATCTGAATTCCGGTCTCCC
DNA 2: TGGTGGCTACGACGGGATT
B2: UCUUUGG (DNA:RNA)
RNA: B1 RNA with G27U, C28U, G29U, A31G
DNA 1: CAATCTGAATTCCGGTCTCCC
DNA 2: TGGTGGCTACGACGGGATT
B3: ACAAACC (DNA:RNA)
RNA: B1 RNA with U25A, G27A, C28A, G29A, G30C, A31C
DNA 1: CAATCTGAATTCCGGTCTCCC
DNA 2: TGGTGGCTACGACGGGATT
B4: UGCCUAC (DNA:RNA)
RNA: B1 RNA with C26G, G27C, G29U, G30A, A31C
DNA 1: CAATCTGAATTCCGGTCTCCC
DNA 2: TGGTGGCTACGACGGGATT
B5: AACACUG (DNA:RNA)
RNA: GGGAGACCGGAAUUCAGAUUGUCCAACACUGUUAAAUCCCGUCGUAGCCACCA
DNA 1: CAATCTGAATTCCGGTCTCCC
DNA 2: TGGTGGCTACGACGGGATT
B6: CUACUUU (DNA:RNA)
RNA: B5 RNA with A25C, A26U, C27A, A28C, C29U, G31U
DNA 1: CAATCTGAATTCCGGTCTCCC
DNA 2: TGGTGGCTACGACGGGATT
B7: UUGUUGU (DNA:RNA)
RNA: B1 RNA with C26U, C28U, G29U, A31U
DNA 1: CAATCTGAATTCCGGTCTCCC
DNA 2: TGGTGGCTACGACGGGATT
B8: GAUCUAG (DNA:RNA)
RNA: B5 RNA with A25G, C27U, A28C, C29U, U30A
DNA 1: CAATCTGAATTCCGGTCTCCC
DNA 2: TGGTGGCTACGACGGGATT
B9: UAAUAUU (DNA:RNA)
RNA: B5 RNA with A25U, C27A, A28U, C29A, G31U
DNA 1: CAATCTGAATTCCGGTCTCCC
DNA 2: TGGTGGCTACGACGGGATT
B10: UUUGACA (DNA:RNA)
RNA: B1 RNA with C26U, G27U, C28G, G29A, G30C
DNA 1: CAATCTGAATTCCGGTCTCCC
DNA 2: TGGTGGCTACGACGGGATT
B11: CCCUCGA (DNA:RNA)
RNA: B1 RNA with U25C, G27C, C28U, G29C
DNA 1: CAATCTGAATTCCGGTCTCCC
DNA 2: TGGTGGCTACGACGGGATT
B12: GUCAUAC (DNA:RNA)
RNA: B5 RNA with A25G, A26U, C29U, U30A, G31C
DNA 1: CAATCTGAATTCCGGTCTCCC
DNA 2: TGGTGGCTACGACGGGATT
B13: CUCGGGG (DNA:RNA)
RNA: B5 RNA with A25C, A26U, A28G, C29G, U30G
DNA 1: CAATCTGAATTCCGGTCTCCC
DNA 2: TGGTGGCTACGACGGGATT
B14: CGAAAUU (DNA:RNA)
RNA: B5 RNA with A25C, A26G, C27A, C29A, G31U
DNA 1: CAATCTGAATTCCGGTCTCCC
DNA 2: TGGTGGCTACGACGGGATT
B15: CGGAGUC (DNA:RNA)
RNA: B5 RNA with A25C, A26G, C27G, C29G, G31C
DNA 1: CAATCTGAATTCCGGTCTCCC
DNA 2: TGGTGGCTACGACGGGATT
B16: UUUCCUC (DNA:RNA)
RNA: B5 RNA with A25U, A26U, C27U, A28C, G31C
DNA 1: CAATCTGAATTCCGGTCTCCC
DNA 2: TGGTGGCTACGACGGGATT
B17: AACAGUU (DNA:RNA)
RNA: B5 RNA with C29G, G31U
DNA 1: CAATCTGAATTCCGGTCTCCC
DNA 2: TGGTGGCTACGACGGGATT
B18: UGCUAUA (DNA:RNA)
RNA: B5 RNA with A25U, A26G, A28U, C29A, G31A
DNA 1: CAATCTGAATTCCGGTCTCCC
DNA 2: TGGTGGCTACGACGGGATT
B19: GCCGUAG (DNA:RNA)
RNA: B5 RNA with A25G, A26C, A28G, C29U, U30A
DNA 1: CAATCTGAATTCCGGTCTCCC
DNA 2: TGGTGGCTACGACGGGATT
B20: GUAAAAG (DNA:RNA)
RNA: B5 RNA with A25G, A26U, C27A, C29A, U30A
DNA 1: CAATCTGAATTCCGGTCTCCC
DNA 2: TGGTGGCTACGACGGGATT

The experiment deals with T1, RBFOX1 RRM RbFoxmut (Fox-RRM*) (Homo sapiens, UniProt Q9NWB1 109-208, R118D;E147R;N151S;E152T).
T1 sequence: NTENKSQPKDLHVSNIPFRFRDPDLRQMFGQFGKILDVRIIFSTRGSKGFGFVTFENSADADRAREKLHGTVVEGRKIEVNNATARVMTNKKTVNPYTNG
As to the kind of experiment: EMSA; HiTS-Eq, 1 nM pool, 10 min; buffer printed only for the single-RNA assays: 10 mM Tris pH 7.5, 150 mM NaCl, 3.4 mM EDTA, 0.001% NP-40, 30 C. The conditions noted are these: tags: His6 N-terminal (pET28a); label: 5' 32P. Put shortly: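 A pool of RNA with 7 randomized nucleotides, 5′-radiolabelled and with DNA-annealed flanks, was equilibrated at 1 nM for 10 min in 50 µL with purified RbFox RRM, wild type or mutant, across increasing protein concentrations. Free RNA was separated by 8% native PAGE, excised, reverse-transcribed, barcoded by PCR and sequenced. Relative association constants were obtained from read-count changes of each RNA species versus the control reaction and normalised to the cognate motif.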
In the case of B1, the binding signal is 0.0704 KA relative to UGCAUGU.
For the molecule B2, the binding signal was 0.108 KA relative to UGCAUGU.
Consider B3, for which the binding signal was 0.0766 KA relative to UGCAUGU.
Under B4 stands 0.105 KA relative to UGCAUGU; under B5, 0.0461 KA relative to UGCAUGU; under B6, 0.0663 KA relative to UGCAUGU.
As for B7, the binding signal is 0.21 KA relative to UGCAUGU.
The result for B8 reads 0.122 KA relative to UGCAUGU.
For the molecule B9, the binding signal is 0.0688 KA relative to UGCAUGU.
In the case of B10, the binding signal is 0.0638 KA relative to UGCAUGU.
For B11, the binding signal is 0.0691 KA relative to UGCAUGU.
Under B12 stands 0.1 KA relative to UGCAUGU; under B13, 0.0788 KA relative to UGCAUGU.
For B14, the binding signal is 0.0581 KA relative to UGCAUGU.
B15: the binding signal is 0.138 KA relative to UGCAUGU.
B16: the binding signal is 0.0512 KA relative to UGCAUGU.
As to B17, the binding signal is 0.062 KA relative to UGCAUGU.
B18: the binding signal was 0.131 KA relative to UGCAUGU.
As for B19, the binding signal is 0.101 KA relative to UGCAUGU.
For B20, the binding signal is 0.0873 KA relative to UGCAUGU.
